# Results: publication PMC4336329 (PLoS ONE, 2015)
# The whole screen tested about 310,000 compounds, of which about 2,200 (0.71%) showed an effect of 50% or more. Effects have a minus sign here. The list shows a part of the results.
# Target: human ether-à-go-go-related gene (hERG) potassium channel (human, UniProt Q12809)
# Assay: primary screen, population patch clamp on CHO cells stably expressing hERG
# Chain of human ether-à-go-go-related gene (hERG) potassium channel (Q12809 whole entry, looked up): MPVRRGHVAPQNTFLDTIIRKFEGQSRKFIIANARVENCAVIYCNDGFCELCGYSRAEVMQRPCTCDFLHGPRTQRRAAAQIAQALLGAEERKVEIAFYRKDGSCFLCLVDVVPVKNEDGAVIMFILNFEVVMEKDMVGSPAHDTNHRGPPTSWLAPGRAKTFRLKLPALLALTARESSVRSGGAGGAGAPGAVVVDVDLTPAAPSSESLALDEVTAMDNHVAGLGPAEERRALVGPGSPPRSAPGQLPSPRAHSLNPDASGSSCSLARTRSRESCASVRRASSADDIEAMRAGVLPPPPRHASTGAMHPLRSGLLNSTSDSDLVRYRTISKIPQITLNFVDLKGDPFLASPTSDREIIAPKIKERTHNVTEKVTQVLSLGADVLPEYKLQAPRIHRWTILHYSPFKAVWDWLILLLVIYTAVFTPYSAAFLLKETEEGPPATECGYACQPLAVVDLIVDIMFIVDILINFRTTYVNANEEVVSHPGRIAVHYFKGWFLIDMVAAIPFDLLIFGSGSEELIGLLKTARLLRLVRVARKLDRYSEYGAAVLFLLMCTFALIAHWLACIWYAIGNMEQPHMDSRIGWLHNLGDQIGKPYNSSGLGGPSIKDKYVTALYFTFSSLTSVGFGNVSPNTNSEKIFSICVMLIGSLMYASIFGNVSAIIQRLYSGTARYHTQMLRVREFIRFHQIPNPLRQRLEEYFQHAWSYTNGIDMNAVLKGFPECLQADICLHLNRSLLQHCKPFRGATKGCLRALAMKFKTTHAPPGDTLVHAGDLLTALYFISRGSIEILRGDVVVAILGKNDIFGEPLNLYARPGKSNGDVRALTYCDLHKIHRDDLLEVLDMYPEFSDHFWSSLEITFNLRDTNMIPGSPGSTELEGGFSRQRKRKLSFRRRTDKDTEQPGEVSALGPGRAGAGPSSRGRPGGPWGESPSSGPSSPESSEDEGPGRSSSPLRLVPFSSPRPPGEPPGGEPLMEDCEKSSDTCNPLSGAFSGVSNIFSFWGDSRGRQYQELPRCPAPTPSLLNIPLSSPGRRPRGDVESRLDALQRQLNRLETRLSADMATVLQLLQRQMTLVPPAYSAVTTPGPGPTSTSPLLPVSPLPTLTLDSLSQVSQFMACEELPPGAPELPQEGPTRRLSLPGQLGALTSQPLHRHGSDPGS
row,SMILES,"hERG current change (%, negative = inhibition) at 1uM"
1,COc1ccc(CC(=O)NCC(=O)N/N=C/c2ccc(C)o2)cc1,12.4%
2,O=c1[nH]c(C2CCCCC2)nc2ccccc12,-1.2%
3,CCC(C)(NC(=O)c1ccc2c(c1)OCO2)C(=O)NC1CCCCC1 (centres unmarked),6.99%
4,NC1=NC(=O)/C(=C/c2cccs2)S1,5.11%
5,CCN(CC)C(=O)CSc1nnc(CCNC(=O)OC(C)(C)C)o1,4.5%
6,Cc1cccc(NC(=S)NCc2ccc3[nH]c4c(c3c2)CCCC4)c1,15.9%
7,COc1ccc(N(CC(=O)Nc2ccc(C)cc2C)S(=O)(=O)c2ccccc2[N+](=O)[O-])c(OC)c1,0.0301%
8,CC1(C)OC(=O)N(c2ccccc2)C12C=Cc1c(ccc3ccccc13)O2 (centres unmarked),17.4%
9,O=C(O)c1cccc(-n2nnnc2SCc2ccccc2Cl)c1,14.8%
10,CCC(C)(C)NC(=O)c1cccc(NC(=O)C(C)C)c1,13.9%
11,CC(NC(=O)c1cccc(S(=O)(=O)N2CCc3ccccc3C2)c1)c1ccco1 (centres unmarked),-1.31%
12,O=C(CCn1c(=O)[nH]c2ccccc2c1=O)Nc1ccccc1,17.1%
13,Cc1cc(F)ccc1S(=O)(=O)Nc1ccccc1C(=O)Nc1ccccc1N1CCOCC1,9.44%
14,CNc1ccccc1-c1nc2ccccc2n(C)c1=O,0.751%
15,COc1ccc(OCC(=O)Nc2ccc(S(=O)(=O)N3CCOCC3)cc2)cc1,16.5%
16,CN(Cc1cccnc1)C(=O)CCCc1c[nH]c2ccccc12,17%
17,O=C(Nc1ccc(S(=O)(=O)N2CCCC2)cc1)c1cc(F)c(F)cc1Cl,6.64%
18,Cc1ccc(NC(=O)CN2C(=O)NC(C)(C3CC3)C2=O)cc1S(=O)(=O)N1CCCCC1 (centres unmarked),2.21%
19,CCOCc1[nH]c(=S)[nH]c(=O)c1Cc1ccc(OCC(C)C)cc1,15.4%
20,COc1ccc(-n2c(SCC(=O)N3CCOCC3)nnc2C(C)N2CCCCC2)cc1 (centres unmarked),6.21%
21,Cc1ccc(NC(=O)CN(C)C(=O)c2cc(-c3cccs3)nn2-c2ccccc2)cc1,4.38%
22,CCOc1ccc(C2Nc3ccccc3NC3=C2C(=O)CC(C)(C)C3)cc1OC (centres unmarked),15.2%
23,Cc1noc(C)c1CCC(=O)N1CCCC(CO)(Cc2ccccc2)C1 (centres unmarked),7.75%

row,SMILES,"hERG current change (%, negative = inhibition) at 1uM"
1,CC(=O)N1c2ccc(S(=O)(=O)N3CCCC(C(=O)N4CCCC(C)C4)C3)cc2CC1C (centres unmarked),25.7%
2,O=C(CNC(=O)c1ccco1)NCC(c1ccco1)N1CCCCC1 (centres unmarked),11.7%
3,CCN1C(=O)c2cccc3c(S(=O)(=O)N4CCCC4C(=O)O)ccc1c23 (centres unmarked),9.87%
4,CN(C)/N=C/c1ccc(N2CCOCC2)cc1,-5.23%
5,O=C(CN1CCN(C(=O)C2CCC2)CC1)Nc1ccc(F)cc1,-27.3%
6,CCCCCCCCN1[C@@H](CC(=O)OCC)c2cc(F)ccc2S1(=O)=O,6.55%
7,CC(C)(C)NCC(O)Cn1cc(C=O)c2ccccc21 (centres unmarked),11.4%
8,Cc1cc(C)n(CCCNC(=O)C2CCC(=O)N(CCc3ccc(Cl)cc3)C2)n1 (centres unmarked),-5.79%
9,Cc1cccc(NC(=O)CSc2cn[nH]n2)c1,8.25%
10,COC(=O)c1ccc(N=NNc2ccc(C(=O)OC)cc2)cc1,17.5%
11,COc1cccc(C(C)NC(=O)Nc2cc(Cl)ccc2OC)c1 (centres unmarked),13.5%
12,CC#CC[N+](C)(C)CCCCCC.[Cl-],14.4%
13,CCOC(=O)C1=NN(c2ccc(OC)cc2)C(c2ccccc2)CC1=O (centres unmarked),8.31%
14,CCOC(=O)c1sc(NC(=O)CCN2CCN(CC)CC2)c(C(=O)OCC)c1C,-59.8%
15,Cc1ccc(C)c(C(=O)n2cnnc2N)c1,10.1%
16,CC(C)(C)NC(=O)C(=O)NNC(=O)c1ccccc1Br,3.35%
17,Cc1cccc2c1N(CCCOc1ccc(C(C)(C)C)cc1)C(=O)C2=O,5.93%
18,CC(C)CCn1c(O)c(N=NC(=O)Cn2ccc(C(F)(F)F)n2)c2ccccc21,3.71%
19,Cc1noc(C)c1CSc1nnc2sc3ccccc3n12,0.273%
20,CC(OC(=O)C12CCC(=O)N1c1ccccc1S2)C(=O)Nc1cccc(Cl)c1 (centres unmarked),4.74%
21,Cn1c(CNC(=O)c2ccc3c(c2)OCO3)nnc1SCC(=O)Nc1ccc(F)cc1F,8.18%
22,COc1ccccc1C1NC(c2ccccc2OC)C(C)C(=O)C1C (centres unmarked),-17.9%
23,COC(=O)C1=C(C(C)=O)C(c2ccc(C(=O)OC)cc2)n2nnnc2N1 (centres unmarked),9.32%

row,SMILES,"hERG current change (%, negative = inhibition) at 1uM"
1,CCN1C(=O)[C@H]2[C@@H](c3ccc(-c4ccc(C(C)=O)cc4)cc3)N3CCC[C@@]3(C(=O)OC)[C@H]2C1=O.O=C(O)C(F)(F)F,4.66%
2,COc1cc(/C=C/C(=O)O)cc(S(=O)(=O)Nc2ccc3cn[nH]c3c2)c1OC,6.67%
3,O=C(NNC(=S)Nc1ccccc1)c1cccc(Br)c1,10%
4,CCOC(=O)c1ccc(-n2c(CCC(=O)O)ccc2-c2cccs2)cc1,12.4%
5,O=C(CCNC(=O)c1ccco1)Nc1ccc(OC(F)F)c(Cl)c1,0.759%
6,Cn1c(=O)[nH]c(=O)c2c1nc(N1CCOCC1)n2CC(=O)c1ccccc1,5.78%
7,CC(=O)OCC(=O)c1c[nH]c2ccccc12,14.1%
8,CC(=O)c1cccc(NC(=O)[C@@H](NC(N)=O)C(C)C)c1,24.6%
9,CC(=O)Nc1ccc(S(=O)(=O)N2CCN(c3nc(NC4CCCC4)c4ccccc4n3)CC2)cc1,-47.7%
10,O=C1NC(c2ccccc2)=NC1(NS(=O)(=O)c1ccc(Cl)cc1)C(F)(F)F (centres unmarked),5.71%
11,CC(C)c1ccc(NC(=O)COc2nnc(-c3cccs3)c(-c3cccs3)n2)cc1,13.9%
12,COC(=O)[C@@H]1C[C@@H]2CC[C@@H](O)C[C@@H]2N1Cc1ccc(OC)cc1,7.58%
13,COc1cc(/C=N/NC(=O)c2ccccn2)ccc1OC(=O)c1ccc(Br)cc1,4.42%
14,N#Cc1ccccc1CSC1=NCCS1,16%
15,Cc1c(Cl)cccc1NC(=S)NCCC(c1ccccc1)c1ccccc1,8.68%
16,COc1ncc(-c2ccc3c(c2)S(=O)(=O)c2cccc(C(=O)O)c2C3=O)cn1,9.9%
17,COc1ccc(N2CCN(CCNC(=O)Nc3ccc(Cl)cc3)CC2)cc1,-23.8%
18,COc1ccc(-c2noc(COc3ccc(C)c(C)c3)n2)cc1OC,6.98%
19,CCCOc1ccc(Oc2ccc(S(=O)(=O)N3CCN(C)CC3)cn2)cc1,12.9%
20,Cc1nnc2sc(-c3ccc(-c4ccc(Cl)c(C(F)(F)F)c4)o3)nn12,15.1%
21,CCC1CCCCN1CCCNC(=O)c1nn(C)c2c1CS(=O)(=O)c1ccccc1-2 (centres unmarked),9.59%
22,Cc1ccc(NC(=O)c2nc[nH]c2C(=O)N2CCCCC2)c(C(=O)c2ccccc2)c1,6.56%
23,O=C(CSc1ccc2c(c1)OCCO2)Nc1ccc2c(c1)OCO2,2.4%

row,SMILES,"hERG current change (%, negative = inhibition) at 1uM"
1,C=CCOC(=O)C1=C(C)NC(=O)NC1C1CC=CCC1 (centres unmarked),11.3%
2,O=C(Oc1ccc(F)cc1)c1cccnc1,13.9%
3,COc1ccc(NC(=O)CSc2nc3ccccc3c(=O)n2CCCN2CCCCC2)c(OC)c1,-27.7%
4,COc1cc(NC(=O)CSc2c3c(nc4ccccc24)CCC3)cc(OC)c1OC,6.55%
5,CCCSc1nnc(CNS(=O)(=O)c2ccc(C)cc2)n1C,7.18%
6,O=C(CN1C(=O)C2C3CCC(C3)C2C1=O)OCC(=O)c1ccccc1 (centres unmarked),5.04%
7,CC(=O)NC(CC(=O)c1ccc([N+](=O)[O-])cc1)C(Cl)(Cl)Cl (centres unmarked),-8.69%
8,Cc1cc(C(=O)CN2C(=O)C(=O)N(C3CCCC3)C2=O)c(C)n1-c1ccc(F)cc1,5.93%
9,N#Cc1ccc2ccn(CC(=O)NC3CCCCC3)c2c1,11.6%
10,C=CCn1c2c(c(=O)[nH]c1=S)CN(C(C)c1ccccc1)CN2 (centres unmarked),15.7%
11,COc1ccc(-c2[nH]c(-c3ccccc3)nc2SCC(=O)NC2CCCC2)cc1,7.57%
12,Cc1ccc(-c2cc(=O)c3cc(Cl)ccc3[nH]2)cc1,12.9%
13,Cc1nc2ccc(C(=O)Nc3ccc4nc[nH]c4c3)cc2[nH]1,9.4%
14,COc1ccccc1NS(=O)(=O)c1cn(C)cn1,10.3%
15,CC(=O)c1ccc(OCCCC(=O)N2CCN(S(=O)(=O)c3cccs3)CC2)cc1,-1.02%
16,CC(CCc1ccccc1)NC(=O)COC(=O)c1ccc(NC(N)=O)cc1 (centres unmarked),10.7%
17,Cc1nc2c(c(-c3ccccc3)c1C#N)C(=O)c1ccccc1-2,12.5%
18,COc1ccc(-c2noc(C3CCCN(C(=O)c4ccccc4C)C3)n2)cc1 (centres unmarked),14%
19,c1csc(-c2nc(-c3ccncc3)no2)c1,13.5%
20,COc1ccccc1NC(=O)COC(=O)C1CCN(/C=C/C(=O)C(F)(F)F)CC1,-25.2%
